Reference: the supplement of paper PMC12217912
Some of the results follow. The full chains were built here from the parent and the listed change. Values near 0.05 are background.

B1: TEV protease; numbered along this chain (parent)
chain: MGESLFKGPRDYNPISSSICHLTNESDGHTTSLYGIGFGPFIITNKHLFRRNNGTLVVQSLHGVFKVKDTTTLQQHLVDGRDMIIIRMPKDFPPFPQKLKFREPQREERICLVTTNFQTKSMSSMVSDTSCTFPSGDGIFWKHWIQTKDGQCGSPLVSTRDGFIVGIHSASNFTNTNNYFTSVPKNFMELLTNQEAQQWVSGWRLNADSVLWGGHKVFMVKPEEPFQPVKEATQL

Variants of: B1
Assay: raw area under fraction-flipped curve 0-4 h after induction (AUC4h, not background-subtracted), DNA-recorder readout of cleavage of the substrate (dimensionless); higher = more cleavage of the substrate by the protease variant
Details: temperature: 34 °C; time window: 0-4 h after rhamnose induction
Description: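 In vivo DNA recorder in E. coli TOP10(DE3) ΔrhaA at 34 °C. Each TEVp single-site mutant (parent TEVp 0) is paired with a single-site variant of the 7-mer TEVs (canonical ENLYFQ|S). The substrate sits between flexible linkers in a Bxb1-sfGFP-TEVs-SsrA fusion, so cleavage stabilises Bxb1 and speeds flipping of a recombination array, read by NGS. The value is the raw area under the fraction-flipped curve over 0-4 h after rhamnose induction (AUC4h), with ≥20 reads per time point. It is not background-subtracted; inactive controls average about 0.047.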
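Further: Bxb1 expression induced with 0.2% (w/v) L-rhamnose at OD600 near 0.5, cultures sampled hourly, flipped fraction per protease–substrate barcode pair counted by paired-end Illumina sequencing.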

Variant	area with substrate ENLYFQC	area with substrate ENLYFQH	area with substrate ENLYFQN	area with substrate ENLYFQS	area with substrate ENLYFQT	area with substrate ENLYFQW	area with substrate ENLYFQE	area with substrate ENLYFQG	area with substrate ENLYFQK	area with substrate ENLYFQL	area with substrate ENLYFQM	area with substrate ENLYFQR	area with substrate ENLYFQV	area with substrate ENLYFQI	area with substrate ENLYFQP	area with substrate ENLYFQQ	area with substrate ENLYFQY	area with substrate ENLYFQD	area with substrate ENLYFQF
MGESLFKGPRDYNPISSSICHLTNESDGHTTSLYGIGFGPFIITNKHLFRRNNGTLVVQSLHGVFKVKDTTTLQQHLVDGRDMIIIRMPKDFPPFPQKLKFREPQREERICLVTTNFQTKSMSSMVSDTSCTFPSGDGIFWKHWIQTKDGQCGSPLVSTRDGFIVGIHSASYFTNTNNYFTSVPKNFMELLTNQEAQQWVSGWRLNADSVLWGGHKVFMVKPEEPFQPVKEATQL [N172Y]	0.0534	0.0531	0.0687	0.0601	0.0728	0.0588													
MGESLFKGPRDYNPISSSICHLTNESDGHTTSLYGIGFGPFIITNKHLFRRNNGTLVVQSLHGVFKVKDTTTLQQHLVDGRDMIIIRMPKDFPPFPQKLKFREPQREERICLVTTNFQTKSMSSMVSDTSCTFPSGDGIFWKHWIQTKDGQCGSPLVSTRDGFIVGIHSASNFTNTNNYFTSVPKNLMELLTNQEAQQWVSGWRLNADSVLWGGHKVFMVKPEEPFQPVKEATQL [F187L]	0.119	0.0716	0.0737	0.108	0.0602	0.108	0.0897	0.149	0.0585	0.046	0.0754	0.066	0.0447						
MGESLFKGPRDYNPISSSICHLTNESDGHTTSLYGIGFGPFIITNKHLFRRNNGTLVVQSLHGVFKVKDTTTLQQHLVDGRDMIIIRMPKDFPPFPQKLKFREPQREERICLVTTNFQTKSMSSMVSDTSCTFPSGDGIFWKHWIQTKDGQCGSPLVSTRDGFIVGIHSASNFTNTNTYFTSVPKNFMELLTNQEAQQWVSGWRLNADSVLWGGHKVFMVKPEEPFQPVKEATQL [N178T]	0.0716	0.0585	0.0664	0.0713	0.0515	0.0625		0.0665	0.0644		0.0658	0.0628	0.0573	0.0555	0.0542	0.0636	0.0586		
MGESLFKGPRDYNPISSSICHLTNESDGHTTSLYGIGFGPFIITNKHLFRRNNGTLVVQSLHGVFKVKDTTTLQQHLVDGRDMIIIRMPKDFPPFPQKLKFREPQREERICLVTTNFQTKSMSSMVSDTSCTFPSGDGIFWKHWIQTKDGQCGSPLVSTRDGFIVGIHSASNFTNTNNYFTLVPKNFMELLTNQEAQQWVSGWRLNADSVLWGGHKVFMVKPEEPFQPVKEATQL [S182L]	0.0685	0.053		0.062				0.122						0.0411				0.0466	
MGESLFKGPRDYNPISSSICHLTNESDGHTTSLYGIGFGPFIITNKHLFRRNNGTLVVQSLHGVFKVKDTTTLQQHLVDGRDMIIIRMPKDFPPFPQKLKFREPQREERICLVTTNFQTKSMSSMVSDTSCTFPSGDGIFWKHWIQTKDGQCGSPLVSTRDGFIVGIHSASNWTNTNNYFTSVPKNFMELLTNQEAQQWVSGWRLNADSVLWGGHKVFMVKPEEPFQPVKEATQL [F173W]	0.117	0.0818		0.0996	0.0637	0.0657		0.0946		0.0571		0.0768			0.0795	0.072	0.0616	0.0626	0.0506
MGESLFKGPRDYNPISSSICHLTNESDGHTTSLYGIGFGPFIITNKHLFRRNNGTLVVQSLHGVFKVKDTTTLQQHLVDGRDMIIIRMPKDFPPFPQKLKFREPQREERICLVTTNFQTKSMSSMVSDTSCTFPSGDGIFWKHWIQTKDGQCGSPLVSTRDGFIVGIHSASNQTNTNNYFTSVPKNFMELLTNQEAQQWVSGWRLNADSVLWGGHKVFMVKPEEPFQPVKEATQL [F173Q]	0.0957	0.062	0.0273	0.0822		0.0522		0.09		0.0599		0.0599		0.0681		0.0728			0.0713
MGESLFKGPRDYNPISSSICHLTNESDGHTTSLYGIGFGPFIITNKHLFRRNNGTLVVQSLHGVFKVKDTTTLQQHLVDGRDMIIIRMPKDFPPFPQKLKFREPQREERICLVTTNFQTKSMSSMVSDTSCTFPSGDGIFWKHWIQTKDGQCGSPLVSTRDGFIVGIHSASNFTNTNNYFRSVPKNFMELLTNQEAQQWVSGWRLNADSVLWGGHKVFMVKPEEPFQPVKEATQL [T181R]	0.0503		0.0426	0.0521	0.0485				0.0411	0.0471		0.0598	0.0536				0.0499		
MGESLFKGPRDYNPISSSICHLTNESDGHTTSLYGIGFGPFIITNKHLFRRNNGTLVVQSLHGVFKVKDTTTLQQHLVDGRDMIIIRMPKDFPPFPQKLKFREPQREERICLVTTNFQTKSMSSMVSDTSCTFPSGDGIFWKHWIQTKDGQCGSPLVSTRDGFIVGIHSASNFTNTNNYFTSVDKNFMELLTNQEAQQWVSGWRLNADSVLWGGHKVFMVKPEEPFQPVKEATQL [P184D]	0.111			0.0755	0.0719	0.0469			0.0526		0.0725	0.054		0.0544	0.0471		0.0597		
MGESLFKGPRDYNPISSSICHLTNESDGHTTSLYGIGFGPFIITNKHLFRRNNGTLVVQSLHGVFKVKDTTTLQQHLVDGRDMIIIRMPKDFPPFPQKLKFREPQREERICLVTTNFQTKSMSSMVSDTSCTFPSGDGIFWKHWIQTKDGQCGSPLVSTRDGFIVGIHSASNFTNTNNYFTSVTKNFMELLTNQEAQQWVSGWRLNADSVLWGGHKVFMVKPEEPFQPVKEATQL [P184T]	0.0901		0.0693	0.093	0.0649				0.06	0.047		0.0526		0.0638				0.0722	
MGESLFKGPRDYNPISSSICHLTNESDGHTTSLYGIGFGPFIITNKHLFRRNNGTLVVQSLHGVFKVKDTTTLQQHLVDGRDMIIIRMPKDFPPFPQKLKFREPQREERICLVTTNFQTKSMSSMVSDTSCTFPSGDGIFWKHWIQTKDGQCGSPLVSTRDGFIVGIHSASNFTNTNNYFTSVPKNFMRLLTNQEAQQWVSGWRLNADSVLWGGHKVFMVKPEEPFQPVKEATQL [E189R]	0.0955			0.095	0.0629	0.0642	0.0425	0.0804	0.0669	0.0601		0.0579	0.0762		0.0516	0.0702	0.0698		
